The campaign covered roughly 310,000 compounds. About 14,000 (4.5%) showed an effect of 50% or more. Effects have a minus sign here. The list shows a part of the results.
What follows are compounds tested against human ether-à-go-go-related gene (hERG) potassium channel (human, UniProt Q12809) (assay: primary screen, population patch clamp on CHO cells stably expressing hERG).
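Further: peak tail current of the secondary pulse compared with the same well before compound.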

Chain of human ether-à-go-go-related gene (hERG) potassium channel (Q12809 whole entry, looked up): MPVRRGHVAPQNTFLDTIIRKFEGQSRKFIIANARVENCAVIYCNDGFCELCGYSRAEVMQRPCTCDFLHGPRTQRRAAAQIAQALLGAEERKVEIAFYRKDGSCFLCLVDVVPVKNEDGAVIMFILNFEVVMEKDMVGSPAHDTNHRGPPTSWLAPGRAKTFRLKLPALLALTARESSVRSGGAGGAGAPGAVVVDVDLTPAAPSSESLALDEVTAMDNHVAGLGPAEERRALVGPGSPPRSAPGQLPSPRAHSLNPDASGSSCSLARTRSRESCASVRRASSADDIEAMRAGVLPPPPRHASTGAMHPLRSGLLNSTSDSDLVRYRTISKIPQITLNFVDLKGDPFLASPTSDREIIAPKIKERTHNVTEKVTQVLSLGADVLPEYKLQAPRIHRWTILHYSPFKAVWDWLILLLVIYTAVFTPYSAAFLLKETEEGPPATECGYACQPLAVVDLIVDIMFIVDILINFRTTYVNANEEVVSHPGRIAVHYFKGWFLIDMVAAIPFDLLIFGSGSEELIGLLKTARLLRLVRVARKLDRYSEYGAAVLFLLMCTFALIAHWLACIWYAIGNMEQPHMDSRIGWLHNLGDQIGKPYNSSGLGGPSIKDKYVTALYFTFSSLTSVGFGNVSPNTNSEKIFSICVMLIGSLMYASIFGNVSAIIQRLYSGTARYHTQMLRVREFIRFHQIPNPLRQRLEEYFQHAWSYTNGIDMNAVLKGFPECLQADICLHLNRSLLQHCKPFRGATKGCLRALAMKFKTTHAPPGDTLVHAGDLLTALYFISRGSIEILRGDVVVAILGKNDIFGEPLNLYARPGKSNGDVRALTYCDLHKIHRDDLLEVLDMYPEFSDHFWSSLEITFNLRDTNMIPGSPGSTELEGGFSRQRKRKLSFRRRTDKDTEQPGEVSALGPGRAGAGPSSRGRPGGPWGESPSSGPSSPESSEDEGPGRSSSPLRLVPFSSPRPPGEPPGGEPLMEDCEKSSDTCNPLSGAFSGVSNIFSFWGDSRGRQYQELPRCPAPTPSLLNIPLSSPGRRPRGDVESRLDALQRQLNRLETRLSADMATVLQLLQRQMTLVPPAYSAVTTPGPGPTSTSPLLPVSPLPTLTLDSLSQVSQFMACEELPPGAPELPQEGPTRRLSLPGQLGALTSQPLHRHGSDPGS

Row | Structure (SMILES) | hERG current change (%, negative = inhibition) at 10uM
1 | CN=C(NC)SC1CC(=O)N(c2ccccc2)C1=O (centres unmarked) | 3.13%
2 | [O-][Cl+3]([O-])([O-])[O-].c1ccc(-c2[nH]c[n+](CC3CO3)c2-c2ccccc2)cc1 (centres unmarked) | 10.6%
3 | CC(=O)NC12CC3CC(CC(CC(=O)O)(C3)C1)C2 | -2.25%
4 | CCOc1ccc(OCC)c(S(=O)(=O)NCc2ccccn2)c1 | -1.02%
5 | CCOC(=O)N(C)c1ccc(C(O)(C(F)(F)F)C(F)(F)F)cc1 | 23.3%
6 | Cc1cc(Cl)ccc1C(=O)C1CCCN(C(=O)c2ccoc2)C1 (centres unmarked) | -3.62%
7 | O=C(Cn1nc([N+](=O)[O-])nc1Br)NC1CCCCC1 | 18.2%
8 | O=C(Nc1nccs1)c1ccc([N+](=O)[O-])cc1Cl | 4.39%
9 | CCOP(=O)(OCC)C(NC(=O)c1ccc(C)cc1)=C(Cl)Cl | 2.23%
10 | CC1CCC2(CC1)NC(=O)N(CC(=O)Nc1cccnc1Cl)C2=O (centres unmarked) | 5.97%
11 | Cc1cc(OC(=O)c2ccc(S(=O)(=O)N(C)C)cc2)c([N+](=O)[O-])c(=O)[nH]1 | 10.6%
12 | CCCCn1c(N)c(N(CC)C(=O)c2cccc(OC)c2)c(=O)[nH]c1=O | 1.65%
13 | Cc1ccc(OCC(=O)OCC(=O)c2ccccc2)cc1C | 12.9%
14 | Cc1ccc(S(=O)(=O)CCC(=O)OCn2nnc3ccccc3c2=O)cc1 | 4.9%
15 | Cn1c(=O)n(C)c2cc(NS(=O)(=O)c3ccc(Cl)s3)ccc21 | -1.37%
16 | CCC(C)(C)C1CCC2(CC1)NC(=O)N(CC(=O)NCCc1ccc(OC)c(OC)c1)C2=O (centres unmarked) | -19%
17 | O=C(Nc1nccs1)c1ccc(Cl)cc1[N+](=O)[O-] | -9.1%
18 | CC1CCN(S(=O)(=O)c2nnc(NC(=O)c3cccc(Cl)c3)s2)CC1 | 7.01%
19 | COC(=O)c1ccc(N2CCOCC2)c(NC(=O)c2ccco2)c1 | 1.95%
20 | CC(=O)N(NC(=O)c1ccccc1Cl)C1CC(=O)N(c2ccc(C)cc2)C1=O (centres unmarked) | 14.1%
21 | N#Cc1c(N)nc2c(c1N)CC(CCl)O2 (centres unmarked) | 2.98%
22 | COc1cccc(CN(Cc2ccco2)S(=O)(=O)c2ccc(S(=O)(=O)NCc3ccccc3)cc2)c1OC | 7.41%

Row | Structure (SMILES) | hERG current change (%, negative = inhibition) at 10uM
23 | O=C(Nc1cc(Cl)cc(Cl)c1)Nc1cnccn1 | 5.58%
24 | CCCCCOCC1CC(C/C(C)=N/Nc2nc(-c3ccccc3)cs2)C(=O)O1 (centres unmarked) | -1.48%
25 | COc1ccc(S(=O)(=O)N2CCN(Cc3cc(=O)n4ccccc4n3)CC2)cc1 | -31.4%
26 | N#Cc1ccccc1CSc1ccc(-c2nc3ccccc3[nH]2)cn1 | 16.4%
27 | O=C(CNS(=O)(=O)c1ccc(Br)s1)NCC1COc2ccccc2O1 (centres unmarked) | 0.753%
28 | N=c1c(C(=O)NC2CCCCC2)cc2c(=O)n3ccccc3nc2n1CCc1ccccc1 | -81.1%
29 | CCOC(=O)CSC(C)C(=O)Nc1nnc(C(C)C)s1 (centres unmarked) | -3.58%
30 | Cc1cc(NC(=O)c2cc([N+](=O)[O-])cc([N+](=O)[O-])c2)n(-c2ccccc2)n1 | 7.63%
31 | O=C(NC1CCCC1)C1c2ccccc2C(=O)N1C1CCCCC1 (centres unmarked) | -2.27%
32 | CN(C)CCN1C(=O)C(O)=C(C(=O)c2ccco2)C1c1ccccc1F (centres unmarked) | 11.9%
33 | COc1ccc(S(=O)(=O)N(CC(=O)N2CCOCC2)Cc2ccccc2)cc1C | -18.8%
34 | CCN(CC)S(=O)(=O)c1cccc(NC(=O)COC(=O)CNC(=O)c2cccc(F)c2)c1 | -31.4%
35 | CC1CCCN(C(C(=O)Nc2ccc3c(c2)OCO3)c2ccccc2)C1 (centres unmarked) | -19.7%
36 | N/C(Cc1ccc([N+](=O)[O-])cc1)=N\OC(=O)C1CCCCC1 | -3.44%
37 | CCn1c(CCC(N)=O)nnc1SCC(=O)c1cc(C)n(C2CC2)c1C | -19.4%
38 | O=C(CSc1nnc(SCc2ccc(Cl)cc2)s1)N/N=C/c1ccc(C(=O)O)cc1 | 24.6%
39 | CN(C)c1nc(SCc2ccc(Cl)cc2)nc2c1CCCC2 | 13.1%
40 | COc1ccc(N2CCN(c3nc(-c4cccs4)nc4ccccc34)CC2)cc1 | 14.4%
41 | Cc1ccc(O)c(NC(=O)C2=CC(c3ccco3)=NS(=O)(=O)N2C)c1 | -3.33%
42 | O=C(NC1CCN(C(=O)Nc2cccc(F)c2)CC1)C1CCCCC1 | -2.55%
43 | CCOC(=O)CN(C(=O)CCC(=O)Nc1cc(C)on1)C(C(=O)NC1CCCC1)c1cccnc1 (centres unmarked) | -34.7%
44 | O=S(=O)(/N=C(/Nc1ccc(F)cc1F)c1ccccc1)c1ccccc1 | -10.4%

Row | Structure (SMILES) | hERG current change (%, negative = inhibition) at 10uM
45 | O=C(Nc1ccc(OCc2ccccc2)cc1)Nc1cccnc1 | 10.9%
46 | Cc1ccccc1OCc1nc(-c2ccc(NC(=O)c3cccs3)cc2)no1 | 12.1%
47 | CCCCc1ccc(NC(=O)c2c(C)noc2C)cc1 | -5.77%
48 | CC1C=CCC2C(=O)N(c3cccc(C(=O)Nc4ccc(F)cc4)c3)C(=O)C12 (centres unmarked) | -39.8%
49 | C[C@H](NC(N)=O)C(=O)N1CCN(S(=O)(=O)c2ccc3ccccc3c2)CC1 | -44.2%
50 | CCOC(=O)C1C(c2ccccc2)C(C(=O)OCC)S(=O)(=O)C(CCN(CC)CC)S1(=O)=O (centres unmarked) | 15.9%
51 | CN1CCCN(C(=O)c2c(F)cccc2Cl)CC1 | 28.3%
52 | CSc1cccc(NC(=O)N2CCCC(CNS(=O)(=O)Cc3ccccc3)C2)c1 (centres unmarked) | -37.1%
53 | CCOC(=O)COc1ccc(S(=O)(=O)N2CCN(c3ccc(OC)cc3)CC2)cc1 | 0.759%
54 | COc1cccc(CC(=O)Nc2ccc3nc(C)sc3c2)c1 | 8.73%
55 | O=C(CSc1ncn(-c2ccccc2)n1)Nc1nc(-c2ccccc2)cs1 | -11.3%
56 | CC(=O)NC(Cc1cc(C)ccc1C)C(=O)N1CCN(C(=O)c2ccc([N+](=O)[O-])cc2)CC1 (centres unmarked) | -30.2%
57 | O=S(=O)(NCc1ccc2c(c1)OCO2)c1ccc2oc3ccccc3c2c1 | -1.28%
58 | O=C(O)c1cccc(-c2ccc(/C=N/n3cnnc3)o2)c1 | 15.1%
59 | COc1ccc(OCCOC(=O)CNC(=O)c2cccc(C)c2)cc1 | -15.7%
60 | Cc1cc(NC(=O)CCN2CCN(CCO)CC2)ccc1Br.Cl | -4.69%
61 | CC(=O)Nc1ccc(C(=O)Nc2ccc3c(c2)OCCO3)cc1 | 6.76%
62 | COc1ccc(NC(=O)C2CCN(c3cnccn3)CC2)cc1OC | 15.5%
63 | COc1ccc2c(c1)[C@H]1[C@H](CO2)[C@H](c2ccccc2)[C@]2(C)C(=O)Nc3ccccc3C(=O)N12 | -15.9%
64 | O=C(Nc1ccc2c(c1)OCCO2)c1ccc(Br)cc1 | -3.81%
65 | CCCN(CCC(=O)Nc1cc(OC)cc(OC)c1)CC1CC1.Cl | -12.1%
66 | CCN1CCN(C(=O)c2cc3cc(F)ccc3[nH]2)CC1 | -65%

Row | Structure (SMILES) | hERG current change (%, negative = inhibition) at 10uM
67 | O=C(C1CCCN(S(=O)(=O)c2cc(Cl)ccc2Cl)C1)N1CCCCCC1 (centres unmarked) | -62.4%
68 | O=C(N/N=C/c1ccc(O)c(O)c1)C1c2ccccc2Oc2ccccc21 | -13.5%
69 | O=C1C(=O)N(CCS(=O)(=O)c2ccccc2)c2ccccc21 | 14.8%
70 | COc1ccc(C(NC(=O)CNC(C)=O)C(=O)Nc2ccc(C(C)C)cc2)cc1 (centres unmarked) | -5.76%
71 | CN1CCC(C(=O)N2CCCC(C(=O)c3ccc4c5c(cccc35)CC4)C2)CC1 (centres unmarked) | -61.1%
72 | COc1ccc(C2/C(=C(/O)c3ccccc3)C(=O)C(=O)N2CCCN2CCOCC2)cc1 (centres unmarked) | 22.7%
73 | Oc1ccc2ccccc2c1C=Nc1ccccc1-c1nc2ccccc2[nH]1 | -5.84%
74 | COc1cc(C(=O)N2CCC(NC(=O)C(Cc3ccc(C(C)C)cc3)NC(C)=O)CC2)cc(OC)c1OC (centres unmarked) | -3.73%
75 | CCC1CCCCN1CCCNC(=O)c1cn(CC(C)C)c(=O)c2cc(OC)c(OC)cc12 (centres unmarked) | -6.7%
76 | COC(=O)C1=C(CN2CCc3ccccc32)NC(=O)NC1c1cc(C)ccc1C (centres unmarked) | -2.97%
77 | CCOC(=O)C(Cc1c(F)cccc1F)(NC(C)=O)C(=O)OCC | 8.41%
78 | Cc1ccc(/C=C/C(=O)NC(=S)N2CCN(c3ccc(F)cc3)CC2)cc1 | 10.4%
79 | COc1cccc(N2[C@@H](CC(=O)O)c3ccc(/C=C/C(=O)O)cc3S2(=O)=O)c1 | 25.3%
80 | O=C1CC(C2CCCO2)C(=O)N1c1ccc(Cl)c(Cl)c1 (centres unmarked) | -8.45%
81 | CCN(CC)c1ccc(C=Nc2ccc(N(C)C)cc2)c(O)c1 | 14.8%
82 | CCOC(=O)C1=NOC(COc2ccccc2C=O)C1 (centres unmarked) | 3.3%
83 | CCOC(=O)c1cc2cc(C)ccc2[nH]1 | 4.23%
84 | Cc1ccc(S(=O)(=O)/N=C(\N)c2ccc(F)cc2)cc1 | 13.8%
85 | Cc1ccc(S(=O)(=O)N(C)/C(=N/S(=O)(=O)c2ccccc2)c2ccccc2)cc1 | -13.8%
86 | Cc1c(C(C)O)nnn1-c1nonc1N (centres unmarked) | -2.42%

— article PMC4336329 (PLoS ONE, 2015)
